The values that follow come from publication PMC4336329 (PLoS ONE, 2015).

In all, about 310,000 compounds went through this assay and about 2,200 (0.71%) showed an effect of 50% or more. Effects have a minus sign here. The list shows a part of the results. Where a SMILES comes first, the peptide text is derived from it. The star is where a group is joined. Boc = CC(C)(C)OC(=O)*

Chain of human ether-à-go-go-related gene (hERG) potassium channel (Q12809 whole entry, looked up): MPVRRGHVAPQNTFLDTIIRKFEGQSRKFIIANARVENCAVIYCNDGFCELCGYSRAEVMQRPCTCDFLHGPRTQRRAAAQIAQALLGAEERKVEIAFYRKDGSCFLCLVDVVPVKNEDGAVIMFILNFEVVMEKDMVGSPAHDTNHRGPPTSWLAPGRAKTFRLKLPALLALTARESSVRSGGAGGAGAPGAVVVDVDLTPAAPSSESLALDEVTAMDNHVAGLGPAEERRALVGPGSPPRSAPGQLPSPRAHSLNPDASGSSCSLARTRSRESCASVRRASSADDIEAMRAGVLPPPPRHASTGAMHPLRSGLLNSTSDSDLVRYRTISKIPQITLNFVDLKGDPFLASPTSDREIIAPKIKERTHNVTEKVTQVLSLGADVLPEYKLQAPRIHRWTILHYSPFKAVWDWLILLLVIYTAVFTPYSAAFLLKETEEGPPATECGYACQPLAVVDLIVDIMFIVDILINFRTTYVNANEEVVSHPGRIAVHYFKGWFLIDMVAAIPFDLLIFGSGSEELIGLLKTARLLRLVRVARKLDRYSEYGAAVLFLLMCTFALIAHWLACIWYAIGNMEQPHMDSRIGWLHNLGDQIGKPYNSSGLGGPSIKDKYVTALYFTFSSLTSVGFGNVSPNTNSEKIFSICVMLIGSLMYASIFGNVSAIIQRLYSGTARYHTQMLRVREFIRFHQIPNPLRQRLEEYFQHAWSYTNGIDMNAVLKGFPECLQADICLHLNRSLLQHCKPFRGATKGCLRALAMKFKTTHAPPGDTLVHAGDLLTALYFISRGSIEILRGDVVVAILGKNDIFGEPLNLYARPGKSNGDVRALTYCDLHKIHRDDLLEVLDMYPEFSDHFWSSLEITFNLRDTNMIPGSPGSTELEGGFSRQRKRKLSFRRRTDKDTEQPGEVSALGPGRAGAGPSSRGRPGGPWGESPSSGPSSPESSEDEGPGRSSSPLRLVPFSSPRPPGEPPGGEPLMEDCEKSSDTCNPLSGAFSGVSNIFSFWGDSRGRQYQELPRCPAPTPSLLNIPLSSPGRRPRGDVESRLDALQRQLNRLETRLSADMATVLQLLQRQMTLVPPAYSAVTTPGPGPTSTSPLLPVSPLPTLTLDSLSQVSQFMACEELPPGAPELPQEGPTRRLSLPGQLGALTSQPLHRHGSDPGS

This assay addresses human ether-à-go-go-related gene (hERG) potassium channel (human, UniProt Q12809). Nature of the assay: primary screen, population patch clamp on CHO cells stably expressing hERG.
As for `COC/C=C/C1=CC2=CC(=O)C(C)(OC(=O)c3cnc4ccccc4n3)C(=O)C2=CN1Cc1ccc(OC)cc1` (stereo not shown), the “hERG current change (%, negative = inhibition) at 1uM” value turned out to be 8.93%.

As for `Cc1cccc(OCC(=O)N(Cc2cccs2)C2CCS(=O)(=O)C2)c1` (stereo not shown), the “hERG current change (%, negative = inhibition) at 1uM” value was -4.8%.

Regarding `Cc1ccc(S(=O)(=O)n2c([N+](=O)[O-])cnc2C)cc1C`, the “hERG current change (%, negative = inhibition) at 1uM” value was determined as 6.98%.

On to `Cc1ccc(NC(=O)CCCn2c(=O)oc3ccccc32)c(O)c1`, for which the “hERG current change (%, negative = inhibition) at 1uM” value is -4.64%.

In the case of `CSc1ccccc1NC(=O)CSc1nncs1`, the “hERG current change (%, negative = inhibition) at 1uM” value is on record as 15.2%.

Consider `O=C(CN1CCN(S(=O)(=O)c2ccc3ccccc3c2)CC1)NC(=O)NC1CCCCC1`, for which the “hERG current change (%, negative = inhibition) at 1uM” value is reported as 10.7%.

As for `O=C(Nc1ccc2c(c1)OCO2)[C@@H]1CCCN1S(=O)(=O)c1cccc2cccnc12`, the “hERG current change (%, negative = inhibition) at 1uM” value is listed as 14%.

Take `O=c1c2c(O)cc(O)cc2oc2ccc(O)c(O[C@@H]3O[C@H](CO)[C@@H](O)[C@H](O)[C@H]3O[C@H]3O[C@H](CO)[C@@H](O)[C@H](O)[C@H]3O)c12`: the “hERG current change (%, negative = inhibition) at 1uM” value came to 12.1%.

For the molecule `Cc1ccc(C)c(OCC(=O)Nc2ccc(C(=O)O)cc2NC(=O)COc2cc(C)ccc2C)c1`, the “hERG current change (%, negative = inhibition) at 1uM” value turned out to be 10.8%.

Regarding `CC(C)NC(=S)N/N=C/c1ccc(N2CCOCC2)cc1`, the “hERG current change (%, negative = inhibition) at 1uM” value was found to be 11%.

In the case of `COc1ccc(NC(=O)c2ccc(-c3ccccc3C(F)(F)F)o2)cc1`, the “hERG current change (%, negative = inhibition) at 1uM” value is -1.26%.

For the molecule `Cc1cc(C)n(-c2nc(N(C)C)nc(N3CCOCC3)n2)n1`, the “hERG current change (%, negative = inhibition) at 1uM” value is recorded as 2.1%.

Turning to `Cc1ccc(OCCNC(=O)CCc2ccccc2)cc1C`, the “hERG current change (%, negative = inhibition) at 1uM” value was found to be 3.29%.

Take `Cl.O=[N+]([O-])c1ccc(N2CCN(Cc3ccccc3)CC2)nc1`: the “hERG current change (%, negative = inhibition) at 1uM” value is listed as -5.67%.

Turning to `COc1ccc(CNc2ccc(C(=O)O)cc2)cc1`, the “hERG current change (%, negative = inhibition) at 1uM” value was determined as 13.5%.

In the case of `CCOC(=O)CSc1nnc([C@H](C)NC(=O)OC(C)(C)C)o1`, the “hERG current change (%, negative = inhibition) at 1uM” value is given as 0.92%.

With `O=C(CN(C(=O)CCC(=O)Nc1nccs1)C1CCCC1)NCc1ccc2c(c1)OCO2`, the “hERG current change (%, negative = inhibition) at 1uM” value was 7.56%.

Take `CN(CC(=O)Nc1ccc(Cl)c(Cl)c1)C(=O)CC1OC(=O)c2ccccc21` (stereo not shown): the “hERG current change (%, negative = inhibition) at 1uM” value was -11.9%.

Regarding `Fc1ccccc1COc1ccc(C(=S)N2CCCC2)cc1`, the “hERG current change (%, negative = inhibition) at 1uM” value amounted to 10%.

Consider `COc1ccc(/C=C2/SC(=O)N(CCC(=O)Nc3ccccc3C(=O)O)C2=S)cc1`, for which the “hERG current change (%, negative = inhibition) at 1uM” value is recorded as 7.34%.

As for `COc1cc(Cl)c(C)cc1NC(=O)CSc1nnc(-c2ccco2)n1CC(C)C`, the “hERG current change (%, negative = inhibition) at 1uM” value was -6.76%.

`O=C(NNC(=O)c1cccs1)c1ccc(F)cc1`: the “hERG current change (%, negative = inhibition) at 1uM” value was determined as 19.6%.

Take `OCCC1CN(Cc2cccn2-c2ncccn2)CCN1CCc1ccccc1` (stereo not shown): the “hERG current change (%, negative = inhibition) at 1uM” value is given as -44.6%.

With `CCn1c(-c2cc(-c3cccc(OC)c3)nc3ccccc23)n[nH]c1=S`, the “hERG current change (%, negative = inhibition) at 1uM” value was 4.82%.

As for `Cc1ccc(NC2CCCN(C(=O)c3snnc3C)C2)cc1C` (stereo not shown), the “hERG current change (%, negative = inhibition) at 1uM” value came to 13.4%.

With `CC1(C(=O)NC(=S)N(CCC#N)c2ccccc2)CC1(Cl)Cl` (stereo not shown), the “hERG current change (%, negative = inhibition) at 1uM” value is reported as -4.43%.

Take `CCOC(=O)N1CCN(Cc2nc3c(c(=O)[nH]c(=O)n3C)n2Cc2cc(C)ccc2C)CC1`: the “hERG current change (%, negative = inhibition) at 1uM” value was 7.12%.

`COC(=O)c1nnn(-c2ccccc2)c1N`: the “hERG current change (%, negative = inhibition) at 1uM” value is listed as -7.63%.

Regarding `O=C(c1cccc([N+](=O)[O-])c1)N1CCOCC1`, the “hERG current change (%, negative = inhibition) at 1uM” value is given as 12.7%.

For `C[C@@H](CN1C2=NC[C@H](Cc3ccc(O)cc3)N2C[C@H]1Cc1ccc(O)cc1)NC(=O)CCC1CCCCC1`, the “hERG current change (%, negative = inhibition) at 1uM” value turned out to be 12.5%.

With `CN(Cc1ccccc1)C(=O)c1ccccc1NC(=O)C1CC1`, the “hERG current change (%, negative = inhibition) at 1uM” value is on record as -8.94%.

As for `Cn1ccnc1SCC(=O)N(C1CCCCC1)C1CCCCC1`, the “hERG current change (%, negative = inhibition) at 1uM” value amounted to 12.2%.

As for `O=C(CCCNS(=O)(=O)c1ccc(F)cc1)Nc1ccc(F)cc1`, the “hERG current change (%, negative = inhibition) at 1uM” value was found to be 4.86%.

Consider `COc1ccc(N2C(=O)CC(N3CCC(O)(c4ccc(Br)cc4)CC3)C2=O)cc1` (stereo not shown), for which the “hERG current change (%, negative = inhibition) at 1uM” value was -8.45%.

For `O=C(c1cnn2c(C(F)F)cc(-c3ccccc3)nc12)N1CCc2ccccc2C1`, the “hERG current change (%, negative = inhibition) at 1uM” value is 13.3%.

For `COc1ccc(N2CCN(C(=O)CSc3nnc4ncccn34)CC2)cc1`, the “hERG current change (%, negative = inhibition) at 1uM” value turned out to be 1.99%.

In the case of `CC1CCc2c(sc3nn[nH]c(=O)c23)C1` (stereo not shown), the “hERG current change (%, negative = inhibition) at 1uM” value was -9.43%.

As for `Cc1ccc(N=C2SC(C(=O)O)CC(=O)N2C)cc1C` (stereo not shown), the “hERG current change (%, negative = inhibition) at 1uM” value came to 2.88%.

As to `CCC(C)C(NC(=O)C(C)NC(=O)CNC(=O)OC(C)(C)C)C(N)=O` (stereo not drawn) (Boc-Gly-Ala-Ile-NH2; configuration not given here), the “hERG current change (%, negative = inhibition) at 1uM” value amounted to 18.6%.

For `CCOc1ccc(-n2cc(C(=O)N3CCCCCC3)c3cc(OC)c(OC)cc3c2=O)cc1`, the “hERG current change (%, negative = inhibition) at 1uM” value is 1.47%.

With `Cc1ccc2nc(CCl)[n+]([O-])c(-c3ccccc3)c2c1`, the “hERG current change (%, negative = inhibition) at 1uM” value was found to be 8.94%.

For `Cn1cccc1Cc1nnc(SCC(=O)Nc2cccc(F)c2)n1-c1ccc(F)cc1`, the “hERG current change (%, negative = inhibition) at 1uM” value was determined as 4.07%.

As to `CCC(C)c1ccccc1NC(=O)c1cc(C)no1` (stereo not shown), the “hERG current change (%, negative = inhibition) at 1uM” value was determined as 16%.

`Cc1csc(/C(C#N)=N/O)n1`: the “hERG current change (%, negative = inhibition) at 1uM” value was 7.55%.

As for `CCN(CC)S(=O)(=O)c1ccc(N2CCCC2)c(NS(=O)(=O)c2ccccc2)c1`, the “hERG current change (%, negative = inhibition) at 1uM” value was found to be 1.88%.

As for `CC(C)(O)c1nnn(-c2ccccc2)c1C(F)(F)F`, the “hERG current change (%, negative = inhibition) at 1uM” value amounted to 8.02%.

With `Cc1cccc(N2CCN(C(=O)CN3C(=O)C4CC=CCC4C3=O)CC2)c1C` (stereo not shown), the “hERG current change (%, negative = inhibition) at 1uM” value came to 18.1%.

In the case of `COc1ccc(/C(C)=N/NC(=O)CNC(=O)c2ccncc2)c(OC)c1`, the “hERG current change (%, negative = inhibition) at 1uM” value is listed as 8.76%.

Regarding `O=C(O)c1c2c(nc3ccccc13)/C(=C/c1c(F)cccc1F)CCC2`, the “hERG current change (%, negative = inhibition) at 1uM” value was determined as 14.3%.

Turning to `Cc1nc(CCl)cc(=O)[nH]1`, the “hERG current change (%, negative = inhibition) at 1uM” value stood at 4.26%.

For `COc1ccc2c(C)cc(N3CCN(Cc4ccccc4)CC3)nc2c1`, the “hERG current change (%, negative = inhibition) at 1uM” value worked out at 7.13%.

For `O=C(Nc1cccc2c1CCCC2)c1ccc(Cl)c([N+](=O)[O-])c1`, the “hERG current change (%, negative = inhibition) at 1uM” value came out at 9.4%.

Regarding `c1ccc(C[C@H]2CN=C(Nc3ccccc3)N2CC2CCC2)cc1`, the “hERG current change (%, negative = inhibition) at 1uM” value is reported as -4.68%.

On to `COc1ccc(-n2c(=O)c3c4c(sc3n3c(=S)[nH]nc23)CCC4)cc1`, for which the “hERG current change (%, negative = inhibition) at 1uM” value came to 9.01%.

For `CCC1(c2ccccc2)NC(=O)N(CC(=O)NCc2ccc(F)cc2)C1=O` (stereo not shown), the “hERG current change (%, negative = inhibition) at 1uM” value worked out at 21.7%.
